According to PubChem BioAssay AID504339 (National Center for Advancing Translational Sciences (NCATS), 2011):
In all, about 390,000 compounds went through this assay and about 17,000 (4.4%) were called active. The inconclusive results got no clear call from the source; some entries with a clear call stand among them for comparison. The call rests on the fitted dose curve; in most records, active means well fitted inhibition curve with a large enough effect; inconclusive means small, poorly fitted or top-dose-only effect; inactive means no such curve, though single readings can be large or run the other way. A potency beside an inconclusive call is a rough fit, not a confirmed value.

biological target: Lysine-specific demethylase 4A (Homo sapiens) (UniProt O75164); assay: qHTS Assay for Inhibitors of JMJD2A-Tudor Domain; settings: AlphaScreen JMJD2A-Tudor / H3K4me3 peptide binding; activity change, negative = inhibition: at 114 µM (top of the series); further: nearly all actives have a fitted effect of over 50% in size
From the text: JMJD2A is a jumonji-domain-containing lysine demethylase that uses Fe(II) together with 2-OG to effect oxidative demethylation of histones. Methylation is one of many […] modification that affect epigenetic transcription. […] It is proposed that the functions of JmjD2A binding to the histones, is to maintain marks after they are installed and to spread the modifications by […], establishing a self-propagating cycle for rapid methylation over a large area of chromatin. […] Thus, small molecule targeting of the JMJD2A-tudor domain interaction with its target methylhistone mark is expected to enable sophisticated experiments probing the fine regulatory pathways leading to selective demethylation of a given methyllysine locus based on the methylation state of adjacent histone marks. A quantitative high throughput AlphaScreen has been developed to identify small molecule inhibitors based on a protocol published by NCGC and SGC [4].
Although AlphaScreen has significant advantages with its utility in a variety of epigenetic target assays, the primary screening data provided in this deposition should be used with caution due to the prevalence of screening artifacts. The top compound concentration tested was high (>100uM) in this assay, which increases number of actives and potential artifacts. An AlphaScreen counterscreen is highly recommended to be run against any putative actives to eliminate non-specific artifacts. Alternatively, one can use other AlphaScreen assays in PubChem to filter out promiscuous hits.
[1] Lee, J. et al. Distinct binding modes specify the recognition of methylated histone H3K4 and H4K20 by JMJD2A-tudor. Nat Struct Mol Biol. 15(1); 109-11. 2008. PMID: 18084306
[2] Yasgar, et al. Compound Management for Quantitative High-Throughput Screening. JALA. 2008 Apr;13(2):79-89. PMID: 18496600
[3] Inglese, et al. Quantitative high-throughput screening: a titration-based approach that efficiently identifies biological activities in large chemical libraries. Proc Natl Acad Sci. 1;103(31):11473-8. 2006. PMID: 16864780
[4] Quinn et al. A homogeneous method for investigation of methyl-dependent protein-protein interactions in epigenetics. Nucleic Acids Res., 38(2):e11. 2010. PMID: […]
[5] Baell,Holloway. New substructure filters for removal of pan assay interference compounds (PAINS) from screening libraries and for their exclusion in bioassays. J Med Chem. 53(7):2719-40. 2010. PMID: 20131845
NIH Molecular Libraries Probe Production Network [MLPCN]
NIH Chemical Genomics Center [NCGC]
Structural Genomics Consortium (SGC)
To each well of a 1,536w plate, 2ul of JMJD2A-Tudor (final 100nM) and 1ul biotinylated histone peptide methylated at Lys4 [b-H3(1-18)K4me3] (final 50nM) were added in 1x PBS buffer, pH 7.4, containing 0.01% Tween-20, using a nanoliter dispenser. Formation of a protein-peptide complex proceeded at room temperature for 30 min. A Kalypsys pin-tool transferred 23nl of library compound solution in DMSO to each well. Following a 30 min incubation of the protein-peptide complex with compounds at room temperature, a mixture of 40 µg/mL each streptavidin-coated donor and nickel chelate acceptor AlphaScreen beads (final 10 µg/mL) was added in a 1ul dispense for a final volume of 4ul, followed by a brief centrifugation (1000 rpm, 1 min). Plates were incubated protected from the light for 20 min at room temperature. Microplates were then read on an EnVision multilabel plate reader using the 1,536 plate HTS AlphaScreen aperture (excitation time 80 ms, measurement time 240 ms).
On the % scale 0 is the no-effect control and ±100 the full control effect; potency means the concentration at half of the fitted maximal effect; tags describe the fitted curve by direction and shape.

Chain of UniProt O75164 (O75164 whole entry, looked up, the tested form may be a part): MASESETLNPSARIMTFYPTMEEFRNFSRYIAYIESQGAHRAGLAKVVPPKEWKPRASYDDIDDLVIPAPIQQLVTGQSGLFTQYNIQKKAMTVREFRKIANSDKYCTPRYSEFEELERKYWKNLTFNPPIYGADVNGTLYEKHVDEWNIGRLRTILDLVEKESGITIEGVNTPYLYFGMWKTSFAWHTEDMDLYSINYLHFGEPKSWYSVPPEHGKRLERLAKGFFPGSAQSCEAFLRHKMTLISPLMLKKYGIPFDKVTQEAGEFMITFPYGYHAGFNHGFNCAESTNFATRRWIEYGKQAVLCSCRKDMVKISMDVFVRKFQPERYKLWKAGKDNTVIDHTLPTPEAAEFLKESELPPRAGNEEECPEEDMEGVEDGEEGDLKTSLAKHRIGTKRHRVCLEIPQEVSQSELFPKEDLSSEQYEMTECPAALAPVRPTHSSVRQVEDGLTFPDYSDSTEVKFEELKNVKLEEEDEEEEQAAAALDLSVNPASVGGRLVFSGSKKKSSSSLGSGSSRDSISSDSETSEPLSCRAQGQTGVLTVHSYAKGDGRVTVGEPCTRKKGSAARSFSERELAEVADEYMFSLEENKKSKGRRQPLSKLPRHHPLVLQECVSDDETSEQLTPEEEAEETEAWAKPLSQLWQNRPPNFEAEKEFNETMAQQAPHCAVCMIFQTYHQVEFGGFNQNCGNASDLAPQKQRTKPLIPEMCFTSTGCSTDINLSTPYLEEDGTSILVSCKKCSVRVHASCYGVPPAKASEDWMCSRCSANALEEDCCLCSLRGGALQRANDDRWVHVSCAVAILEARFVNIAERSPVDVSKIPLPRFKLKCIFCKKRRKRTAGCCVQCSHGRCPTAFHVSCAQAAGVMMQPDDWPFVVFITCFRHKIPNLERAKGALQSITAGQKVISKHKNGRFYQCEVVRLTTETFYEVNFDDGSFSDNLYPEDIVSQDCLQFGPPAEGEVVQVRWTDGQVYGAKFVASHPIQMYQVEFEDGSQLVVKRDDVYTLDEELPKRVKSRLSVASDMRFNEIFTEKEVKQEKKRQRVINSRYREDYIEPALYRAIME

| Compound | activity change, negative = inhibition | Potency |
| --- | --- | --- |
| COc1cccc(C(=O)NC2=NC(c3ccc(N(C)C)cc3)CC(=O)N2)c1 (stereo unspecified) | inactive: -21.2% |  |
| Cc1[nH]c2ccccc2c1CCN(Cc1cccnc1)C(=S)Nc1ccc(F)cc1 |  | inconclusive: 50.1 µM [inhibitor, partial curve] |
| CN1C(=O)/C(=C2/C=Cc3ccccc3N2CCCS(=O)(=O)O)SC1=S |  | inconclusive: 50.1 µM [inhibitor, partial curve] |
| CN(C)c1ccc(C(c2nnnn2CCOC(=O)Nc2ccc(Cl)cc2)N2CCOCC2)cc1 (stereo unspecified) |  | inconclusive: 70.8 µM [inhibitor, partial curve, poor fit] |
| COC(=O)c1c(NC(=O)CC2SC(N)=NC2=O)sc2c1CCC(C)C2 (stereo unspecified) |  | inconclusive: 50.1 µM [inhibitor, partial curve] |
| COc1ccc(C2Nc3ccccc3C(=O)N2Cc2ccco2)cc1COc1cccc(NC(C)=O)c1 (stereo unspecified) |  | active: 50.1 µM |
| Cc1ccc(-c2nn(-c3ccccc3)cc2C2SCC(=O)N2Cc2ccccc2)o1 (stereo unspecified) |  | inconclusive: 50.1 µM [inhibitor, partial curve] |
| Brc1ccccc1Cn1c(-c2cscn2)nc2ccccc21 |  | inconclusive: 35.5 µM [inhibitor, full curve, poor fit] |
| O=C(C(=O)N(Cc1ccccc1)Cc1ccccc1)c1c(-c2ccccc2)[nH]c2ccccc12 |  | inconclusive: 39.8 µM [inhibitor, partial curve, poor fit] |
| COc1ccc(OC)c(-c2cc(C(=O)N3CCN(c4ccccc4)CC3)no2)c1 |  | inconclusive: 20 µM [inhibitor, full curve, poor fit] |
| COc1ccccc1NC(=O)CCCN1C(=O)C(c2ccccc2)Oc2cccnc21 (stereo unspecified) | inactive: 14% |  |
| COc1cc(CC(=O)OCC(=O)NC2CCCCC2)cc(OC)c1OC | inactive: -15.4% |  |
| CCOC(=O)C(Cc1c[nH]c2ccccc12)NC(=O)COc1ccc(Cl)cc1 (stereo unspecified) |  | inconclusive: 50.1 µM [inhibitor, partial curve] |
| Cc1c(Cl)cccc1NC(=O)CN1C(=O)CCn2nc(-c3cccn3C)cc21 |  | inconclusive: 50.1 µM [inhibitor, partial curve] |
| Cc1ccc2nc(C(=O)O)c(C(=O)O)nc2c1 |  | active: 39.8 µM |
| CCOc1cc(/C=C/c2ccc3cccc([N+](=O)[O-])c3n2)cc(Cl)c1O |  | inconclusive: 35.5 µM [inhibitor, partial curve] |
| Cc1ccc(Cl)cc1NC(=O)CN(C)S(=O)(=O)c1ccc2c(c1)n(C)c(=O)c(=O)n2C | inactive: 4.97% |  |
| CCOc1ccc2c(c1)C(C)=CC(C)(C)N2C(=O)Nc1ccccc1 |  | active: 56.2 µM |
| Cc1cccc(C)c1Nc1c(-c2ccc(Cl)s2)nc2ncccn12 |  | inconclusive: 63.1 µM [inhibitor, partial curve, poor fit] |
| CCOc1cc(/C=N/NC(=O)CNc2cccc(C)c2)ccc1OC(=O)c1ccccc1 |  | inconclusive: 56.2 µM [inhibitor, partial curve] |
| COc1ccc2oc(C(=O)Nc3ccc(S(=O)(=O)N(C)C4CCN(C)CC4)cc3)c(C)c2c1 | inactive: -34.7% |  |
| Cc1ccc2sc(N(CCCN(C)C)C(=O)c3ccc(S(=O)(=O)N4CCCCCC4)cc3)nc2c1C |  | inconclusive: 35.5 µM [inhibitor, full curve] |
| Cc1cc(NC(=O)Cc2cccs2)no1 |  | active: 17.8 µM |
| Cc1ccc(-c2nn(CC(=O)NC3CCCCC3)c3c2cnc2ccc(F)cc23)cc1C | inactive: -12% |  |

| Compound | activity change, negative = inhibition | Potency |
| --- | --- | --- |
| O=C(CSc1nc2c(cnn2-c2ccc(F)cc2)c(=O)[nH]1)Nc1ccc(Br)cc1 |  | inconclusive: 56.2 µM [inhibitor, partial curve] |
| CC(C)C(CCNC(=O)CC(Cc1ccccc1)c1ccco1)c1ccco1 (stereo unspecified) |  | inconclusive: 50.1 µM [inhibitor, partial curve] |
| CC(C)COc1cccc(C(=O)NC(=S)NCc2cccnc2)c1 |  | inconclusive: 25.1 µM [inhibitor, single point] |
| Cc1ccc2c(c1)c(-c1ccccc1)nc1nnnn12 |  | inconclusive: 22.4 µM [inhibitor, full curve] |
| Cc1cccc(C)c1-n1c(C)cc(/C=N/NC(=O)CSc2ncccn2)c1C |  | active: 50.1 µM |
| Cc1ccc(-n2nc(C(=O)NCCN(C)C)c(=O)n(C)c2=O)cc1 | inactive: -15% |  |
| CCOc1ccc(/C=N/NC(=O)Cc2csc(Nc3cccc(C(F)(F)F)c3)n2)c(OCC)c1 |  | inconclusive: 20 µM [inhibitor, full curve] |
| Cc1cccc(/C=N/n2c(-c3ccccc3)n[nH]c2=S)c1O |  | active: 22.4 µM |
| CC1(C)C(=O)Nc2ccccc2N1C(=O)COC(=O)CCSc1ccccc1 |  | inconclusive: 89.1 µM [inhibitor, partial curve, poor fit] |
| COc1cc(C(=S)N2CCCC2)cc(OC)c1OC | inactive: -18.1% |  |
| CC(=O)c1cccc(N(CC(=O)N2CCCCC2)S(C)(=O)=O)c1 | inactive: -13.4% |  |
| COc1ccc(NC(=O)[C@@H](c2ccccc2)N2Cc3ccccc3C2=O)cc1OC | inactive: -25.9% |  |
| Cc1ccc(-c2csc(N3CCC[C@@H]3C(=O)NCCn3c(C(F)(F)F)nc4ccccc43)n2)cc1 |  | inconclusive: 89.1 µM [inhibitor, partial curve] |
| COc1ccccc1CN1CCN(Cc2cc(OC)c(OC)cc2OC)CC1 |  | active: 7.08 µM |
| CCCNC(=O)CSc1nnc(-c2ccco2)n1C |  | inconclusive: 3.16 µM [inhibitor, single point] |
| CCN1CCN(C(=O)C(C)Nc2ccc(OC)cc2OC)CC1 (stereo unspecified) |  | inconclusive: 56.2 µM [inhibitor, partial curve] |
| Cc1nc(-c2ccc(S(=O)(=O)N3CCN(C4c5ccccc5-c5ccccc54)CC3)s2)cs1 | inactive: -12.2% |  |
| N#C/C(=C/c1ccc(N2CCOCC2)o1)c1ccc(Br)cc1 |  | active: 56.2 µM |
| CCC(=O)Nc1nc(-c2ccc3c(c2)OCCO3)cs1 | inactive: -14.9% |  |
| O=C(c1ccccc1)c1ccccc1NC(=O)c1ccccc1C(=O)O | inactive: 2.2% |  |
| Cc1[nH]c2ccccc2c1/C=N/Nc1nncn1N | inactive: -28.9% |  |
| Cc1cc(C(F)(F)F)nn1Cc1n[nH]c(=S)n1Cc1ccccc1 |  | inconclusive: 89.1 µM [inhibitor, single point] |
| COC(=O)c1scc(S(=O)(=O)C(C)C)c1N/N=C(\C#N)C(=O)c1ccc(Cl)cc1 |  | inconclusive: 56.2 µM [inhibitor, partial curve] |
| Cc1ccccc1-n1c(C)n[nH]c1=S |  | active: 20 µM |

| Compound | activity change, negative = inhibition | Potency |
| --- | --- | --- |
| NC1=NC(=Nc2ccc(S(N)(=O)=O)cc2)c2ccccc21 | inactive: -7.35% [at 11.4 µM] |  |
| CCOc1ccccc1Oc1cn[nH]c1-c1ccc(O)cc1O |  | inconclusive: 50.1 µM [inhibitor, partial curve] |
| O=C1/C(=C/c2cccs2)SC(=S)N1NS(=O)(=O)c1ccccc1 |  | inconclusive: 56.2 µM [inhibitor, partial curve] |
| CCOC(=O)C1CN(S(=O)(=O)c2ccc(OC)cc2)c2cc(Cl)ccc2O1 (stereo unspecified) |  | inconclusive: 100 µM [inhibitor, single point] |
| CC1CCCCC1NC(=O)COC(=O)c1ccc(S(=O)(=O)NCc2ccco2)cc1 (stereo unspecified) |  | inconclusive: 39.8 µM [inhibitor, partial curve] |
| Cc1ccccc1NC(=O)CSC(=O)c1ccccc1 |  | active: 89.1 µM |
| CCOC(=O)CC(NC(=O)c1cc2cc(Br)ccc2oc1=O)c1cccc([N+](=O)[O-])c1 (stereo unspecified) | inactive: -19.9% |  |
| CC1(c2nnc(-c3cccc(Cl)c3)o2)CC(c2cccc([N+](=O)[O-])c2)=NO1 (stereo unspecified) |  | inconclusive: 28.2 µM [inhibitor, partial curve] |
| CCCN1CCC2(CC1)NC(C(=O)O)Cc1c2[nH]c2ccccc12 (stereo unspecified) | inactive: -8.53% |  |
| Nc1nnc(SCC(=O)Nc2cccc(S(N)(=O)=O)c2)s1 | inactive: -8.9% |  |
| C[C@@H](NC(=O)c1nc[nH]c1C(=O)N1CCN(C(=O)OC(C)(C)C)CC1)c1ccccc1 |  | active: 79.4 µM |
| COc1ccc(NC(=O)CSc2c3c(nc4ccccc24)CCCC3)c(OC)c1 |  | inconclusive: 22.4 µM [inhibitor, full curve, poor fit] |
| COc1ccccc1C(c1nnnn1CCc1ccccc1)N1CCN(c2ccccc2)CC1 (stereo unspecified) | inactive: -14.2% |  |
| COc1ccc(N=C2C(=Nc3ccc(OC)cc3)N(c3ccc(OC)cc3)C(=S)N2C)cc1 |  | active: 8.91 µM |
| COc1ccc(NC(=O)c2cc3ccccc3o2)cc1OC |  | inconclusive: 20 µM [inhibitor, full curve, poor fit] |
| COc1ccccc1/C=C1\SC(=O)N(CCC(=O)N2CCCCC2CCO)C1=O (stereo unspecified) |  | inconclusive: 50.1 µM [inhibitor, partial curve, poor fit] |
| O=C(Nc1ccccc1N1CCCCC1)c1ccc(Cl)c([N+](=O)[O-])c1 |  | inconclusive: 22.4 µM [inhibitor, partial curve] |
| CC(C)(C)c1ccc(NC(=O)Nc2ccc(OCC(=O)N3CCOCC3)cc2)cc1 |  | inconclusive: 22.4 µM [inhibitor, full curve, poor fit] |
| CCOc1ccccc1NC(=O)CSc1nccn1-c1ccc(Cl)cc1 |  | inconclusive: 39.8 µM [inhibitor, partial curve] |
| O/N=C1/CCCSc2ccccc21 |  | inconclusive: 100 µM [inhibitor, partial curve] |
| O=C(O)c1ccccc1C(=O)NNc1ccc(Cl)cc1Cl | inactive: -8.82% |  |
| O=Cc1ccc2oc3nc4n(c(=O)c3c(=O)c2c1)CCCS4 |  | inconclusive: 89.1 µM [inhibitor, partial curve, poor fit] |
| COc1ccc(/C=N/NC(=O)c2ccc(Br)cc2)cc1Cn1cc(Cl)cn1 |  | inconclusive: 12.6 µM [inhibitor, partial curve] |
